# Measurements reported in PubChem BioAssay AID686978 (National Center for Advancing Translational Sciences (NCATS), 2013).
# Out of some 420,000 compounds screened, about 64,000 (15%) were called active. The shares of active, inactive and inconclusive entries below differ from those in the screen. The call rests on the fitted dose curve; in most records, active means well fitted inhibition curve with a large enough effect; inconclusive means small, poorly fitted or top-dose-only effect; inactive means flat fitted curve, though single readings scatter. Potencies of inconclusive entries are left out as doubtful fits.
# Test: qHTS for Inhibitors of human tyrosyl-DNA phosphodiesterase 1 (TDP1): qHTS in cells in absence of CPT; further: nearly all actives have a fitted effect of over 55% in size
# Conditions: DT40 Tdp1-/- hTDP1 cells, no CPT, ATP luminescence, 48 h; activity change, negative = growth inhibition: at 46.2 µM (top of the series) unless noted
# Summary of the method: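 Chicken DT40 Tdp1-/- cells stably complemented with human TDP1 were seeded at 400 cells/well with DMSO in place of 20 nM camptothecin. After compound pinning, cells grew at least 48 hr at 37 °C; viability read by CellTiter-Glo luminescence.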
# On the % scale 0 is the no-effect control and ±100 the full control effect; potency means the concentration at half of the fitted maximal effect; tags describe the fitted curve by direction and shape.
SMILES,Potency,"activity change, negative = growth inhibition"
COC(=O)C1=CN(Cc2ccc(OC)cc2)C=C(C(=O)OC)C1c1ccsc1,"inconclusive [inhibitor, single point]",–
COc1ccccc1CNC(=O)CCC(=O)N1CC2CCCN2c2ccccc21 (centres undefined),inactive,–
COCCCC1CCN(C(=O)c2cc(COc3ccc(C)nc3)on2)CC1,active: 10.3 µM,–
CCn1cc(C(=O)NCc2ccco2)c(=O)c2ccc(C)nc21,–,inconclusive: -17.4% [inhibitor]
Cc1ccccc1NC(=O)Nc1nc(C(N)c2ccccc2)cs1 (centres undefined),"inconclusive [inhibitor, partial curve]",–
Cn1cccc1/C=C1\SC(=S)N(NC(=O)c2ccccc2O)C1=O,inactive,–
Cc1nc(NC(=O)C23CCC(C)(C(=O)O2)C3(C)C)sc1C (centres undefined),inactive,–
COc1ccc(CNC(=O)/C=C/c2ccc(S(=O)(=O)N3CCOCC3)cc2)cc1,"inconclusive [inhibitor, single point]",–
CCOc1ccc(-c2cc(CCCC(=O)NCCc3ccccc3)no2)cc1,inactive,–
CC12COC3(C(=O)Nc4ccc([N+](=O)[O-])cc4)CC1CCC32C (centres undefined),"inconclusive [inhibitor, partial curve]",–
Cc1nc(NC(=O)CN2CCOCC2)sc1-c1ccccc1,inactive,–
Cc1ccc(C)c(OCC(=O)NC(Cc2c[nH]c3ccccc23)C(=O)O)c1 (centres undefined),"inconclusive [inhibitor, partial curve, poor fit]",–
O=C(Cn1cnc2sc3c(c2c1=O)CCCC3)NCC(=O)Nc1ccc(F)cc1F,"inconclusive [inhibitor, single point]",–
COc1ccc(-c2nc(CSCC(=O)NCc3ccc4c(c3)OCO4)c(C)o2)cc1OC,"inconclusive [inhibitor, single point]",–
CCC(=O)NC(=S)Nc1ccc(NC(=O)COc2ccc(Cl)cc2Cl)cc1,active: 8.2 µM,–
Cn1c(SCc2ccc(Cl)cc2)nc(C(F)(F)F)cc1=O,"inconclusive [inhibitor, single point]",–
NCCCCC(C(=O)O)N(C(=O)OCc1ccccc1)C(=O)OCc1ccccc1 (centres undefined),–,inconclusive: -8.43% [inhibitor]
COc1cc(OC)cc(C(=O)OC/C(O)=C(\C#N)c2nc3ccccc3[nH]2)c1,"inconclusive [inhibitor, single point]",–
Cc1onc(-c2c(F)cccc2Cl)c1C(=O)Nc1nnc(C2CC2)s1,–,inconclusive: -31.9% [inhibitor]
COC(=O)[C@@]1(Cc2ccc(F)cc2)[C@H]2c3cc(C(=O)N(C)C)n(CCO)c3C[C@H]2CN1C(=O)c1ccccc1,inactive,–
O=C(CCCOc1ccc(Cl)cc1Cl)N/N=C\C1CCCCC1,inactive,–
CCN(CCC#N)c1ccc(/C=N/Nc2nc(C)cc(=O)[nH]2)c(C)c1,"inconclusive [inhibitor, single point]",–
Clc1ccccc1-c1ncc(-c2ccccc2)o1,"inconclusive [inhibitor, single point]",–
COc1ccccc1C(=O)Nc1ccnn1C1CCN(Cc2cnn(C)c2C)CC1,inactive,–
CCCN(CC(=O)Nc1ccccc1C)C(=O)c1ccc(N2CCCCCC2)c([N+](=O)[O-])c1,"inconclusive [inhibitor, single point]",–

SMILES,Potency,"activity change, negative = growth inhibition"
Cc1ccc2nc(-c3ccc(NC(=O)CNC4CC4)cc3)sc2c1,active: 18.4 µM,–
COc1cccc(NC(=O)C2CCCN(S(=O)(=O)c3c(C)nn(C)c3C)C2)c1 (centres undefined),active: 14.6 µM,–
COc1ccccc1CCC(=O)Nc1ccc2c(c1)c(=O)n(C)n2Cc1cccc(C(F)(F)F)c1,"inconclusive [inhibitor, single point]",–
Cc1onc(-c2ccccc2)c1C(=O)Nc1nncs1,inactive,–
CCOc1ccc(-c2cn3ccccc3n2)cc1,"inconclusive [inhibitor, partial curve]",–
Cc1cccc(C)c1OCCn1c(C2CC(=O)N(c3cccc(Cl)c3)C2)nc2ccccc21 (centres undefined),active: 13 µM,–
O=C1CCCCC1Sc1nnc(Cc2cccs2)n1CCc1ccccc1 (centres undefined),active: 23.1 µM,–
Cc1ccc(OCC(O)Cn2c(N3CCCCC3)nc3c2c(=O)[nH]c(=O)n3C)cc1C (centres undefined),"inconclusive [inhibitor, single point]",–
O=C(Cc1ccc(Cl)cc1)Nc1ccc2nn(-c3ccc(Cl)cc3)nc2c1,inactive,–
c1ccc(CNc2nc3c(-c4ccccc4)nnn3c3ccccc23)cc1,"inconclusive [inhibitor, single point]",–
C#CCn1cnc2c(oc3ccccc32)c1=O,inactive,–
COc1ccccc1-c1cc(N(C)Cc2ccco2)ncn1,inactive,–
COc1ccc(SCc2cc(=O)c3cc(Cl)ccc3[nH]2)cc1,active: 3.66 µM,–
COCCN(C(=O)Nc1ccccc1OC)c1nc2ccccc2s1,"inconclusive [inhibitor, single point]",–
CC1=CC(C)(C)NC(=S)N1c1ccc(C)c(C)c1,"inconclusive [inhibitor, single point]",–
Cc1ccc(CNC(=O)c2ccc(Cn3c(=O)c4ccccc4n(CC(=O)Nc4ccc(C)cc4C)c3=O)cc2)cc1,"inconclusive [inhibitor, single point]",–
Cc1cccc(C)c1NC(=O)COC(=O)c1ccccc1[N+](=O)[O-],inactive,–
COc1ccc(-c2csc(N3CCN(C(=O)c4ccccc4)CC3)n2)cc1,"inconclusive [inhibitor, single point]",–
CC(C)N(C)NC(=S)Nc1ccccc1,"inconclusive [inhibitor, single point]",–
c1ccc2cc(CCCc3cc4ccccc4cn3)ncc2c1,"inconclusive [inhibitor, partial curve]",–
Nc1nc(-c2ccc(S(=O)(=O)N3CCCCC3)cc2)cs1,"inconclusive [inhibitor, single point]",–
CC(C)Sc1oc(-c2cccs2)nc1S(=O)(=O)c1ccc(Cl)cc1,"inconclusive [inhibitor, single point]",–
CCc1ccccc1N1C(=O)N(Cc2ccc(C#N)cc2)c2ccccc2S1(=O)=O,"inconclusive [inhibitor, single point]",–
COC(=O)c1cc(=O)n(Cc2cccs2)c(=Nc2ccccc2)s1,inactive,–
COc1ccccc1Cc1nc(-c2ccncc2)no1,"inconclusive [inhibitor, partial curve, poor fit]",–

SMILES,Potency,"activity change, negative = growth inhibition"
CCOc1ccc(CCNC(=O)c2cn(CC)c3ccc(S(=O)(=O)N4CCc5ccccc5C4)cc3c2=O)cc1OCC,active: 11.6 µM,–
CCCCOc1ccc(NC2=NC3(CCCC3)N=C(N)N2)cc1,active: 16.4 µM,–
N#Cc1c(N2CCCCC2)nc(N)c2c(N)nc3c(c12)CC(c1ccccc1)O3 (centres undefined),active: 11.2 µM,–
CCCC(=O)N1c2ccccc2C(N(C(C)=O)c2ccccc2)CC1C (centres undefined),"inconclusive [inhibitor, partial curve, poor fit]",–
O=C(O)Cn1cnc2c(OCc3ccccc3)ncnc21,inactive,–
CCCn1c(SCC(=O)N2c3ccccc3CC2C)n[nH]c1=O (centres undefined),inactive,–
CCCn1c(NCc2ccc(N(C)C)cc2)nc2ccccc21,"inconclusive [inhibitor, single point]",–
CCn1c2ccccc2c2cc(CN3CCN(Cc4ccccc4F)CC3)ccc21,"inconclusive [inhibitor, single point]",–
CC(C)OCCCNc1nc(Cl)nc2c1cnn2C,"inconclusive [inhibitor, partial curve]",–
O=C(Nc1ccccc1-c1cn2c(CN3CCNCC3)csc2n1)c1cnc2ccccc2n1,active: 5.62 µM,–
O=C(c1cccc(N2CCCC2=O)c1)N1CCC(Oc2cccc(CN3CCN(c4ccccn4)CC3)c2)CC1,"inconclusive [inhibitor, partial curve]",–
O=C(CNC(=O)OCc1ccccc1)NC1CCCCNC1=O (centres undefined),–,inconclusive: -31% [inhibitor]
Cc1cc(C(=O)NCc2ccc3c(c2)OCO3)ccc1[N+](=O)[O-],"inconclusive [inhibitor, single point]",–
COc1ccccc1N1CCN(C(=O)c2oc3c(c2C)C(=O)CC(C)(C)C3)CC1,active: 6.51 µM,–
O=C(NCCN1CCOCC1)/C(=C/c1ccco1)NC(=O)c1ccccc1,inactive,–
Cc1cccc(C(O)(C(=O)NNc2ccc3ccccc3n2)c2cccc(C)c2)c1,active: 6.51 µM,–
COc1cc(NC(=O)c2cc(-c3cccs3)on2)cc(OC)c1OC,active: 16.4 µM,–
COCCCn1c(SCC(N)=O)nnc1-c1ccccc1,inactive,–
O=C(Nc1ccc(Cl)cn1)c1cccc(S(=O)(=O)N2CCCCC2)c1,"inconclusive [inhibitor, single point]",–
CCC(=O)Oc1ccc(/C=C(\C#N)c2nc3ccccc3[nH]2)cc1OC,"inconclusive [inhibitor, single point]",–
COc1cc(CC(=O)Nc2nc(-c3ccc(F)c(F)c3)cs2)cc(OC)c1OC,active: 5.8 µM,–
CC(Sc1nn(-c2ccc(F)cc2)c(=S)s1)C(=O)c1c(N)n(C)c(=O)n(C)c1=O (centres undefined),active: 13 µM,–
COc1ccccc1N1CCN(C(=S)Nc2ccccc2)CC1,"inconclusive [inhibitor, single point]",–
Cc1cccc(N2CCN(c3nc4ccccc4n4cnnc34)CC2)c1C,"inconclusive [inhibitor, single point]",–
